Test results taken from the antibiotic and cytotoxicity screens of Wong et al. (2023).
The other results are listed elsewhere or left out.

Legend:
[1] = test system: HSkMC (human skeletal muscle cells); test: cytotoxicity call (relative viability < 0.9); settings: 10 µM
[2] = test system: HepG2; test: cytotoxicity call (relative viability < 0.9); settings: 10 µM
[3] = test system: S. aureus RN4220; test: growth inhibition call (relative growth <= 0.2); settings: 50 µM

Structure (SMILES) | cytotoxicity call [1] | cytotoxicity call [2] | growth inhibition call [3]
Cc1ccc(S(=O)(=O)N(C)C[C@@H]2OCCCC[C@@H](C)Oc3ccc(NC(=O)Nc4c(C)noc4C)cc3C(=O)N([C@@H](C)CO)C[C@H]2C)cc1 | inactive | inactive | inactive
Cc1noc(C)c1S(=O)(=O)Nc1ccc2c(c1)CC(=O)N([C@@H](C)CO)C[C@@H](C)[C@H](CN(C)S(C)(=O)=O)O2 | inactive | inactive | inactive
C[C@@H]1CN([C@@H](C)CO)C(=O)Cc2cc(NC(=O)Cc3ccccc3)ccc2O[C@@H]1CN(C)C(=O)Nc1cccc2ccccc12 | inactive | inactive | inactive
C[C@H](CO)N1C[C@H](C)[C@H](CN(C)S(=O)(=O)c2ccc(-n3cccn3)cc2)OCc2cnnn2CCCC1=O | inactive | inactive | inactive
C[C@@H]1CCCCO[C@H](CN(C)C(=O)C2CCCCC2)[C@@H](C)CN([C@@H](C)CO)C(=O)c2cc(NC(=O)CCC(F)(F)F)ccc2O1 | inactive | inactive | inactive
C[C@H](CO)N1C[C@H](C)[C@H](CN(C)C(=O)Nc2ccccc2)Oc2ccc(NS(=O)(=O)c3cn(C)cn3)cc2CC1=O | inactive | inactive | inactive
C[C@@H]1CCCCO[C@@H](CN(C)C(=O)NC2CCCCC2)[C@@H](C)CN([C@H](C)CO)C(=O)c2cc(NS(=O)(=O)c3cccs3)ccc2O1 | inactive | inactive | inactive
O=C(CCCCCNC(=O)OCc1ccc(CO[C@@H]2C[C@H](C3CCCCC3)C=C(C(=O)N3CCCCCCC3)O2)cc1)NO | inactive | inactive | inactive
CCc1cccc2cc[nH]c12 | inactive | inactive | inactive
OCc1cc2c(F)cccc2s1 | inactive | inactive | inactive
COc1ccc(S(=O)(=O)Nc2ccc3c(c2)C(=O)N([C@@H](C)CO)C[C@H](C)[C@H](CN(C)C(=O)CCC(F)(F)F)OCCCC[C@H](C)O3)cc1 | inactive | inactive | inactive
C[C@@H]1CN([C@H](C)CO)C(=O)c2cc(NS(=O)(=O)c3ccc(F)cc3)ccc2O[C@@H]1CN(C)Cc1ccc(Oc2ccccc2)cc1 | active | active | inactive
CC(C)C[C@@H]1NC(=O)[C@@H]2C[C@H](C(=O)NCCCCCCN(C)C)[C@H](c3cccc(OCCO)c3)N2C1=O | inactive | inactive | inactive
Cc1noc(C)c1NC(=O)Nc1ccc2c(c1)C(=O)N([C@@H](C)CO)C[C@@H](C)[C@@H](CN(C)S(=O)(=O)c1c(C)noc1C)O2 | inactive | inactive | inactive
COC(=O)[C@H](Cc1ccccc1)N1CC2=C[C@@H](C3CC3)n3c(=O)n(C)c(=O)n3[C@H]2[C@@H]1[C@@H](O)CCn1cc(COc2ccccc2/C=C(C)/C=C/C(=O)NO)nn1 | inactive | inactive | inactive
CC(C)CC#Cc1ccc2c(c1)O[C@@H](CN(C)Cc1cncnc1)[C@H](C)CN([C@H](C)CO)S2(=O)=O | inactive | inactive | inactive
COc1ccc(S(=O)(=O)N(C)C[C@H]2Oc3ccc(NS(=O)(=O)c4cn(C)cn4)cc3C(=O)N([C@H](C)CO)C[C@H]2C)cc1 | inactive | inactive | inactive
CC(C)NC(=O)Nc1ccc2c(c1)C(=O)N([C@H](C)CO)C[C@@H](C)[C@H](CN(C)Cc1ccc(Oc3ccccc3)cc1)O2 | inactive | inactive | inactive
C[C@H]1CN([C@@H](C)CO)S(=O)(=O)c2ccc(C#Cc3ccncc3)cc2O[C@@H]1CN(C)C(=O)c1ccncc1 | inactive | active | inactive
C[C@H](CO)N1C[C@H](C)[C@H](CN(C)C(=O)Nc2ccc3c(c2)OCO3)Oc2ncc(C#CC(C)(C)O)cc2C1=O | inactive | inactive | inactive
Cc1noc(C)c1S(=O)(=O)N(C)C[C@@H]1Oc2ccc(NC(=O)Nc3ccc4c(c3)OCO4)cc2CC(=O)N([C@H](C)CO)C[C@@H]1C | inactive | inactive | inactive
Cc1noc(C)c1S(=O)(=O)Nc1ccc2c(c1)C(=O)N([C@H](C)CO)C[C@H](C)[C@H](CN(C)C(=O)Nc1cccc3ccccc13)OCCCC[C@H](C)O2 | inactive | inactive | inactive
COc1ccc(S(=O)(=O)Nc2cccc3c2O[C@@H](CN(C)S(=O)(=O)c2cccs2)[C@@H](C)CN([C@@H](C)CO)C3=O)cc1 | inactive | inactive | inactive
C[C@@H]1CCCCO[C@@H](CN(C)S(=O)(=O)c2ccc(F)cc2)[C@H](C)CN([C@H](C)CO)C(=O)c2cc(NC(=O)Nc3ccc4c(c3)OCO4)ccc2O1 | inactive | inactive | inactive
Cc1ccc(S(=O)(=O)N(C)C[C@H]2OCCCC[C@@H](C)Oc3ccc(NC(=O)c4ccccc4)cc3C(=O)N([C@H](C)CO)C[C@@H]2C)cc1 | inactive | inactive | inactive
C[C@H]1CN([C@@H](C)CO)C(=O)c2cccc(NS(=O)(=O)c3cccs3)c2O[C@H]1CN(C)CC1CC1 | inactive | inactive | inactive
